Results as given in PubChem BioAssay AID2546 (National Center for Advancing Translational Sciences (NCATS), 2010).
Among all 310,000 compounds or so, about 11,000 (3.5%) were called active. Inconclusive results, whose numbers are uncertain, are shown with a selection of clear calls. Calls follow the shape of the dose curve; as a rule, active = well fitted inhibition curve with a large enough effect; inconclusive = small, poorly fitted or top-dose-only effect, or effect the other way; inactive = flat fitted curve, though single readings scatter. No potency is given beside an inconclusive call; the fits are too rough.
Potency is read from the fitted curve at half-maximal effect; tags tell the direction and shape of the fitted curve.

Assay: VP16 counterscreen qHTS for inhibitors of ROR gamma transcriptional activity;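 also: Gal4-VP16 expression switched on by copper sulfate through the metallothionein promoter; nearly all actives have a fitted effect of over 50% in size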
Settings: Drosophila S2 Gal4-VP16 UAS-luciferase, luminescence, 20 h; series mostly up to 53.6 µM
In the case of `O=c1[nH]n2c(=O)c3c([nH]c2c1N=Nc1cccc(Cl)c1)CCC3`, the Potency is reported as inconclusive [inhibitor, single point]. In the case of `COc1ccccc1/C=C/c1nc2ccc(OC(C)=O)cc2c(=O)o1`, the Potency is reported as inconclusive [inhibitor, partial curve]. For `Cc1cc(C)cc(N=Cc2ccc([N+](=O)[O-])s2)c1`, the Potency was active: 17.8 µM. In the case of `O=C(/C=C\c1ccco1)c1ccc(NC(=O)c2ccco2)cc1`, the Potency is reported as inconclusive [activator, partial curve]. With `CCOc1ccc(NC(=NCc2ccc3c(c2)OCO3)SC2CC(=O)N(c3ccc(C(=O)O)cc3)C2=O)cc1` (configuration not stated) the Potency was inconclusive [inhibitor, single point]. In the case of `O=C1N/C(=N\c2ccccn2)SC1Cc1ccc(Cl)cc1` (configuration not stated), the Potency is reported as active: 3.16 µM. For `CCSc1nnc(NC(=O)c2c(-c3ccccc3Cl)noc2C)s1`, the Potency was inconclusive [inhibitor, partial curve, poor fit]. With `COc1cc(C(=O)Nc2nnc(C3=COCCO3)o2)cc(OC)c1OC` the Potency was active: 2.82 µM. In the case of `Cc1ccc(NC(=O)Cn2c(O)c(N=NC(=O)c3cc4ccccc4cc3O)c3ccccc32)cc1`, the Potency is reported as inconclusive [inhibitor, full curve, poor fit]. In the case of `Cc1ccc(Oc2cc(NC(=O)CCCn3nc(C)c([N+](=O)[O-])c3C)cc([N+](=O)[O-])c2)cc1`, the Potency is reported as active: 1 µM. For `O=C(Nc1ccc(NC(=S)NC(=O)c2cccs2)cc1)c1ccccc1`, the Potency was active: 15.8 µM. In the case of `CCOc1cc(NC(=O)C2CCCCC2)c(OCC)cc1NC(=O)c1ccco1`, the Potency is reported as “inactive”. With `CC(C)NC(=O)c1ccc2c3n(nc2c1)-c1ccccc1CO3` the Potency was active: 4.47 µM. With `O=C(c1cc(COc2ccc3ncccc3c2)on1)N1CCCC(O)C1` (configuration not stated) the Potency was inconclusive [inhibitor, single point]. With `O=C(COc1ccccc1)NC(=S)N1CCc2ccccc21` the Potency was active: 2.51 µM. In the case of `CNC(=S)N/N=C/c1cn(CCOc2ccc(OC)cc2)c2ccccc12`, the Potency is reported as active: 3.16 µM. For `COCCNC(=O)c1cc(S(=O)(=O)N2CCOCC2)ccc1SCc1cccc(OC)c1OC`, the Potency was “inactive”. With `Cc1ccc2c(C)ccc(O)c2n1` the Potency was inconclusive [inhibitor, single point]. With `CC[C@H]1C(c2ccccc2)=NN(c2ccccc2)[C@@H]1CO` the Potency was inconclusive [inhibitor, single point]. In the case of `OC(COCC(F)(F)C(F)(F)C(F)(F)C(F)F)Cn1c2ccc(Cl)cc2c2cc(Cl)ccc21` (configuration not stated), the Potency is reported as inconclusive [inhibitor, single point]. With `CC(=O)c1c(C)[nH]c(C2=NNC(=NC(C)(C)C)SC2)c1C` the Potency was inconclusive [activator, single point]. In the case of `O=C1NC(=S)S/C1=C\C=C\c1ccc([N+](=O)[O-])o1`, the Potency is reported as active: 4.47 µM. In the case of `Cc1ccc(-c2csc(NC(=O)CSc3nc4ccccc4[nH]3)n2)cc1`, the Potency is reported as inconclusive [inhibitor, single point]. In the case of `Cc1ccnc(SCC(=O)c2cc3ccccc3o2)n1`, the Potency is reported as inconclusive [activator, single point]. With `CCn1cnc2cc(NCc3ccc(C)cc3)ccc21` the Potency was inconclusive [inhibitor, single point]. For `Cc1nn(-c2ccc(N3CCOCC3)nn2)c(C)c1CCC(=O)NCc1ccccc1`, the Potency was “inactive”. With `O=C1/C(=C\c2cccc([N+](=O)[O-])c2O)SC(=S)N1Cc1ccccc1` the Potency was active: 15.8 µM. For `CCC1CCCCN1S(=O)(=O)c1ccc(C(=O)N(CCCN(C)C)c2nc3cc4c(cc3s2)OCO4)cc1` (configuration not stated), the Potency was inconclusive [inhibitor, partial curve, poor fit]. For `Cc1cc(C)cc(NC(=S)NCc2ccc(F)cc2)c1`, the Potency was active: 3.98 µM. In the case of `COc1ccc(NC(=O)NNC(=O)CCC(=O)Nc2ccccc2Cl)cc1`, the Potency is reported as “inactive”. For `Cc1cccc(NC(=S)/N=C(\N)Nc2nc(C)c3ccc(C)cc3n2)c1`, the Potency was active: 3.55 µM. With `COc1ccc(C(=O)COC(=O)c2cccnc2SC)cc1` the Potency was inconclusive [inhibitor, single point]. In the case of `CN(N)c1ccc2c(C(F)(F)F)cc(C(F)(F)F)nc2n1`, the Potency is reported as “inactive”. In the case of `Cc1[nH]nc(-c2ccc(OCc3cnn(-c4ccccc4)c3)cc2O)c1Oc1ccc(Cl)cc1`, the Potency is reported as active: 3.98 µM. With `Cc1ccc(C)c(NNC(N)=S)c1` the Potency was active: 17.8 µM. In the case of `Oc1cc(O)c2c(c1)OC(c1cc(O)c(O)c(O)c1)C(O)C2` (configuration not stated), the Potency is reported as “inactive”. With `CCOc1ccc(C2=NNC(c3cccs3)=Nc3ccc(OCC)cc32)cc1` the Potency was inconclusive [inhibitor, single point]. In the case of `Cc1onc(-c2ccccc2Cl)c1C(=O)NCCCc1ccccc1`, the Potency is reported as “inactive”. For `O=C(CN1CCN(Cc2ccccc2)CC1)N/N=C/c1ccc(Br)s1`, the Potency was active: 10 µM. In the case of `COc1cc(/C=C2\NC(=S)N(C)C2=O)ccc1OCc1ccccc1F`, the Potency is reported as inconclusive [inhibitor, single point]. For `CSc1cccc(CN2CCC(n3nccc3NC(=O)C3CC3)CC2)c1`, the Potency was “inactive”. For `COc1ccc(NC2SC(=O)N(CC(=O)O)C2=O)cc1` (configuration not stated), the Potency was “inactive”. For `CCCCC[n+]1ccn(C2=C([O-])c3ccccc3C(=O)/C2=N\S(=O)(=O)c2ccccc2)c1`, the Potency was inconclusive [inhibitor, single point]. For `NS(=O)(=O)c1ccc(Nc2c([N+](=O)[O-])cncc2[N+](=O)[O-])cc1`, the Potency was inconclusive [inhibitor, partial curve]. With `COCc1cc(C)nc2sc(C(=O)Nc3ccc(OC)cc3)c(N)c12` the Potency was inconclusive [activator, full curve, poor fit]. In the case of `Cc1[nH][nH]c(=O)c1C(c1c(C)[nH][nH]c1=O)c1cn(Cc2ccc(Cl)c(Cl)c2)c2ccccc12`, the Potency is reported as inconclusive [inhibitor, single point]. With `O=C1N/C(=N\N=C\c2ccc3ncccc3c2)SC1Cc1ccc(SC(F)F)cc1` (configuration not stated) the Potency was inconclusive [inhibitor, single point].
